From article PMC10017364
These are yes or no findings as the source states them, for the method shown. Binding seen in cells or lysates may run through a third protein. Some binding calls cover weakened binding; strength is not graded here.

By UniProt entry, the sequences of proteins in these tests, tags left out. Residues count along the entry.
UniProt P08138, residues 29-427: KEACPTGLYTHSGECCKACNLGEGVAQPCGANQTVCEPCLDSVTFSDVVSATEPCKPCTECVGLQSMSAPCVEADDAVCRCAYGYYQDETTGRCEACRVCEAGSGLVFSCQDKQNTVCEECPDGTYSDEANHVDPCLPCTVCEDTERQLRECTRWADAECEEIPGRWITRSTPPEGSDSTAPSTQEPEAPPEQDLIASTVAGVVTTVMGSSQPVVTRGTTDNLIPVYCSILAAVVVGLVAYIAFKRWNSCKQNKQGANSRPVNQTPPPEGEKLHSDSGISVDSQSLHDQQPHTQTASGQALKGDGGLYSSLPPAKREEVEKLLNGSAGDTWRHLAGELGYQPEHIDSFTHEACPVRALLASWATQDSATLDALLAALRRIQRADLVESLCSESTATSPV
UniProt O43747: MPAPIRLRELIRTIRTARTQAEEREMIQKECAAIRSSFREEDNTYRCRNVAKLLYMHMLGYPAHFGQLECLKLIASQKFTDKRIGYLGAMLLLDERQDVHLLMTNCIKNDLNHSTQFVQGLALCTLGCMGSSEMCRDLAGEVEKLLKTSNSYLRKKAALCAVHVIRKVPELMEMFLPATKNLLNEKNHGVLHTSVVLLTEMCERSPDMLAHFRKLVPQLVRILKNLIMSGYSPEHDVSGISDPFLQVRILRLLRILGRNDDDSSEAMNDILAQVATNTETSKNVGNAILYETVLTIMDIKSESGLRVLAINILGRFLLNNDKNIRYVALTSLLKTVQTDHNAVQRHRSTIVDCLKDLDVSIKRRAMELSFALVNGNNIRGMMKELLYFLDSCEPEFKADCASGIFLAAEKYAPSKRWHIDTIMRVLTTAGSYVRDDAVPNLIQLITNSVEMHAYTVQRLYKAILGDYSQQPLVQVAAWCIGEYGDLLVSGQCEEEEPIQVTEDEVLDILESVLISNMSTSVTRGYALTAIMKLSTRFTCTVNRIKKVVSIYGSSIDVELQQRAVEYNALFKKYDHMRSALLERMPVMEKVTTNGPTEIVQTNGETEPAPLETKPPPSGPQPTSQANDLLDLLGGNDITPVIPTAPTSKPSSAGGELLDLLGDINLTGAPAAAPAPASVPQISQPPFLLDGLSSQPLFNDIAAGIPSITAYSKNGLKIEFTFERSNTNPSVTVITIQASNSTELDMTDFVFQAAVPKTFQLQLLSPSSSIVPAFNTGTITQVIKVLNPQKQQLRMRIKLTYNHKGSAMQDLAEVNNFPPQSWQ

Assays:
[1] = target: FLAG-tagged p75 (p75-FLAG) (UniProt P08138); test: co-IP; lysates of HEK293T cells expressing FLAG-tagged proteins incubated with anti-FLAG M2 agarose beads overnight at 4 °C; eluted with FLAG peptides; bound proteins by immunoblotting
[2] = target: HA- and FLAG-tagged EGFR (HA-EGFR-FLAG) (human) (UniProt P00533); test: as above
[3] = target: EGFR (Y1172A)-EGFP-Bio (human) (UniProt P00533); test: pull-down; streptavidin pull-down: lysates of HEK293T cells coexpressing HA-BirA and the EGFP-Bio-tagged EGFR construct incubated with Dynabeads M-280 Streptavidin overnight at 4 °C; lysis buffer 110 mM potassium acetate, 20 mM Hepes pH 7.2, 2 mM magnesium acetate, 0.5% Triton X-100, 1 mM DTT; bound proteins by immunoblotting
[4] = target: EGFR bearing an EGFP and a biotin acceptor peptide (Bio tag) at its C-terminus (EGFR-EGFP-Bio), full length (human) (UniProt P00533); test: as above
[5] = target: N-terminal fragment of EGFR containing the transmembrane domain (EGFR^1-668-EGFP-Bio) (human) (UniProt P00533); test: as above
[6] = target: cytosolic tail of EGFR (EGFR^969-1210-EGFP-Bio) (human) (UniProt P00533); test: as above
[7] = target: fragment containing the cytosolic domain of EGFR (EGFR^669-1210-EGFP-Bio) (human) (UniProt P00533); test: as above

gamma subunit of AP-1 (AP1γ1) (from UniProt O43747 1-822)
binding [1]: no binding | binding [2]: binds | binding [3]: binds | binding [4]: binds | binding [5]: binds weakly | binding [6]: binds | binding [7]: binds
